This is one part of the list.
B1: chr1:155263244:155263345:-|CDS|ENSG00000176444|unk|FALSE|unique (ssRNA)
RNA: GGGAGUUCUACAGUCCGACGAUCGUAUCUGACCUCAGAGGCAGAGGAACACCACCAGCUCUUCGAUCUGAUUGAAAGCAUGCUAGAGUAUGAACCAGCUAAGCGGCUGACCUUGGGUGAAGCCCUUCAGCAUCCUUUCUUCGCCAACAGAGGAUUGAGCAUCA
B2: chr20:4701031:4701132:+|3pUTR|ENSG00000171867|msi1|FALSE|unique (ssRNA)
RNA: GGGAGUUCUACAGUCCGACGAUCCAUAGUUUCUGUAAUUGGCUUUUGAAUCAAAGAAUAGGGAGACAAUCUAAAAAAUAUCUUAGGUUGGAGAUGACAGAAAUAUGAUUGAUUUGAAGUGGAAAAAGAAAUUCUGUUAAUGUUCAACAGAGGAUUGAGCAUCA
B3: chr11:35810521:35810622:+|3pUTR|ENSG00000166326|unk|total|mutant (ssRNA)
RNA: GGGAGUUCUACAGUCCGACGAUCCCAGAAACCAUAAGACUCAGGCAGUUCUUGAUUCUGGAGGCCUGCCUGGUAAGAUAAGACCGUAUAAUUUGGAACUGAGAACAUACCAGAAACAGCAGAACGAGGGCCAGAGCAGAAAAACAACAGAGGAUUGAGCAUCA
B4: chr1:16124655:16124788:-|3pUTR|ENSG00000142627|msi1|FALSE|unique (ssRNA)
RNA: GGGAGUUCUACAGUCCGACGAUCAGACUGUGAACUUGACUGGGUGAGACCCAAAGCGGUCCCUGUCCCUCUAGUGCCUUCUUUAGACCCUCGGGCCCCAUCCUCAUCCCUGACUGGCCAAACCCUUGCUUUCCUGGGCCUUUGCAACAGAGGAUUGAGCAUCA
B5: ENSG00000147394:stop:overlap|stop_codon|ENSG00000147394|stop_codon|NA|stop_codon (ssRNA)
RNA: GGGAGUUCUACAGUCCGACGAUCAUCAGAUCUUCAUUCACCGUGACACCAUUCACUGUGGGAAAUGCUAUGAGAAGCUCUUCUAGCGACCCCCCACCGCCAGGCUGAUCAGAAGCUGAUGACUCGUGGACAAAUUUGGCUGUCCAACAGAGGAUUGAGCAUCA
B6: ENSG00000006125:stop:overlap|stop_codon|ENSG00000006125|stop_codon|NA|stop_codon (ssRNA)
RNA: GGGAGUUCUACAGUCCGACGAUCCAUCAGAAACACAGGAGCUAGUCCAGCAGGUCUUGAGUUUGGCAACACAGCUAAAGAAGUAGUCUUGUCUGAGAAGCCACUGAUCUCUGAGGAGACGGACCUUAUUGAGCCAACUCUGCUCAACAGAGGAUUGAGCAUCA

target: MSI1 full-length (mouse, UniProt Q61474 1-362); assay: nsRBNS (natural sequence RNA bind-n-seq); RBNS binding buffer (assumed for nsRBNS): 25 mM Tris pH 7.5, 150 mM KCl, 3 mM MgCl2, 0.01% Triton X-100, 500 ug/ml BSA, 20 U/ml SUPERase-In, 4 C; UNK is unkempt and MSI1 is Musashi-1; names of the RNAs are library labels; protein concentration not given here; high values mean tight binding
Sequence of UniProt Q61474 (Q61474 whole entry): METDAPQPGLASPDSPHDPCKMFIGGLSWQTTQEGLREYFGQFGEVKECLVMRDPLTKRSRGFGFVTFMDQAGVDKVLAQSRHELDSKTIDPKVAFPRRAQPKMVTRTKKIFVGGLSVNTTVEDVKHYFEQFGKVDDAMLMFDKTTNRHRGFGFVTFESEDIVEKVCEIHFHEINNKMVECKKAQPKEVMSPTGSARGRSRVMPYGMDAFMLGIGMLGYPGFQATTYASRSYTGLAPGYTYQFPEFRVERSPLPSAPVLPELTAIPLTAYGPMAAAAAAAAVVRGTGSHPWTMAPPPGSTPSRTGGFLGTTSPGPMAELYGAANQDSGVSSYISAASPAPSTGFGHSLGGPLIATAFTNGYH

Binder | binding signal [enrichment R]
B1 | 0.393
B2 | 0.766
B3 | 0.612
B4 | 0.71
B5 | 0.509
B6 | 1.31

— PMC12136788
